Assay results taken from PMC4336329 (PLoS ONE, 2015).
The whole screen tested about 310,000 compounds, of which about 14,000 (4.5%) showed an effect of 50% or more. Effects have a minus sign here. The list shows a part of the results.

Target: human ether-à-go-go-related gene (hERG) potassium channel (human, UniProt Q12809)
Assay: primary screen, population patch clamp on CHO cells stably expressing hERG
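Note: peak tail current of the secondary pulse compared with the same well before compound.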

human ether-à-go-go-related gene (hERG) potassium channel, sequence (Q12809 whole entry, looked up): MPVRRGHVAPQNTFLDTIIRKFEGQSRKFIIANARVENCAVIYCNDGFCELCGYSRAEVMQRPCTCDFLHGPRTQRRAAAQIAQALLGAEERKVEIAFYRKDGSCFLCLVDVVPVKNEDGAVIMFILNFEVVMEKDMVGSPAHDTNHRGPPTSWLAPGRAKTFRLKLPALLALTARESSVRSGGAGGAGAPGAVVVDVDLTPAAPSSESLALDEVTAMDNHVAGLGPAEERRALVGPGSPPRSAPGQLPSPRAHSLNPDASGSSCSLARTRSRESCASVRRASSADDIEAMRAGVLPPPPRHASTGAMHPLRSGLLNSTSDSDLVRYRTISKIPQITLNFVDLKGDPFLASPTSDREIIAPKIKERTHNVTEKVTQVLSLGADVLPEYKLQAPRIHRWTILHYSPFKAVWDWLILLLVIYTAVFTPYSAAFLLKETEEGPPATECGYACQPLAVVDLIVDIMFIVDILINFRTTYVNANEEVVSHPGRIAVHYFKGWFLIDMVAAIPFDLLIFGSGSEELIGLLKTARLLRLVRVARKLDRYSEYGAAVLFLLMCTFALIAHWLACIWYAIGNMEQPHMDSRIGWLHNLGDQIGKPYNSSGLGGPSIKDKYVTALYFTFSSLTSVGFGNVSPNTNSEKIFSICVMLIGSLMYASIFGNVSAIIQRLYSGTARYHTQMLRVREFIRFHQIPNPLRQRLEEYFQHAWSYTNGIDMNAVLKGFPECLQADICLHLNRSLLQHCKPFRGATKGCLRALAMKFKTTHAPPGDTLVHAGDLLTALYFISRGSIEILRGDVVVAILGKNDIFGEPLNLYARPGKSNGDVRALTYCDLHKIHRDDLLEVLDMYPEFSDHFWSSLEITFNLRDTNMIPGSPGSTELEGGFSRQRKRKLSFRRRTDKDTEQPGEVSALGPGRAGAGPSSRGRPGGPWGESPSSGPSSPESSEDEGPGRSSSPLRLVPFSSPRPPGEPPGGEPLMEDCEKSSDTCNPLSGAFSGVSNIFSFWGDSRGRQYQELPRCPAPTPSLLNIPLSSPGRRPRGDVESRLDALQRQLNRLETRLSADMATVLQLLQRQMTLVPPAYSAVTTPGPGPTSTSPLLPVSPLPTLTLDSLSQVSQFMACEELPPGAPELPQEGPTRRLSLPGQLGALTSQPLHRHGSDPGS

SMILES | hERG current change (%, negative = inhibition) at 10uM
Cc1n[nH]c(C)c1S(=O)(=O)N(CC(=O)N1CCc2ccccc21)c1ccc(C(C)C)cc1 | 7.14%
CCOc1ccc(OCC)c(NC(=O)C2CCCN(c3ncccn3)C2)c1 (centres unmarked) | -11.5%
O=C(NCCc1ccccc1)C1CCC(CNS(=O)(=O)c2cccc3cccnc23)CC1 (centres unmarked) | -6.89%
CC(=O)Nc1ccc(NC(=O)c2nc(S(=O)(=O)Cc3cccc(C)c3)ncc2Cl)cc1 | 2.07%
Cc1nc(N2CCC(C)CC2)c2c(C)c(C(=O)O)sc2n1 | -0.111%
Cc1ccc(CN2CCCC(C(=O)c3cccc(C(F)(F)F)c3)C2)o1 (centres unmarked) | -19.3%
COCCn1c(=N)c(S(=O)(=O)c2ccc(F)cc2)cc2c(=O)n3ccccc3nc21 | -25.5%
COc1ccc(CN(C)C(=O)C2CCN(C(=O)Nc3ccccc3)CC2)cc1OC | -1.53%
Cc1cc(-c2ccc3c(c2)COc2c4ccccc4nn2-3)on1 | 7.49%
CC(C)OC(=O)CN1C(=O)C(=O)c2ccccc21 | -4.72%
COc1ccc(N2CCN(S(=O)(=O)c3cc4c5c(c3)C(C)C(=O)N5CCC4)CC2)cc1 (centres unmarked) | 3.36%
N#Cc1cnn(-c2nc3sc4c(c3c(=O)[nH]2)CCCC4)c1N | 19.6%
C[C@@H](CN1C(=O)C(=O)NC[C@@H]1Cc1ccc(O)cc1)NC(=O)Cc1ccccc1 | 10.1%
COc1cccc(CC2(CO)CCCN(C(=O)c3cc[n+]([O-])cc3)C2)c1 (centres unmarked) | 10.4%
CCOC(=O)N1CCN(C(=O)CN(Cc2ccc(Cl)cc2)S(=O)(=O)c2ccc(C)cc2)CC1 | -42.8%
CC(=O)Nc1ccc(S(=O)(=O)NNC(=O)CCc2ccccc2)cc1 | -3.34%
Cc1ccccc1NC(=O)Cn1nnc2sc3c(c2c1=O)CC(C)(C)OC3 | -35.2%
CCC(=NC(CC)CO)C1=C(O)CC(C)(C)CC1=O (centres unmarked) | -1.12%
Fc1ccc(Nc2ncnc3sc4c(c23)CCC4)cc1F | -7.96%
O=C(c1ccc(O)cc1)c1ccc(O)cc1O | -18.6%
CCS(=O)(=O)N1CCC(C(=O)NCc2ccc(OC)cc2)CC1 | -5.4%
COCCn1c(=S)[nH]c2cc(C(=O)N3CCC(C(N)=O)(N4CCCCC4)CC3)ccc2c1=O | 2.37%
CC(C)(C)CC(C)(C)NC(=S)Nc1ccc2nc(-c3ccccn3)c(-c3ccccn3)nc2c1 | -8.68%
